Where “and” joins values, the source holds several entries; their conditions need not be identical. Equal values may be shown once.
Tests used:
[1] = tested on: DBA/1 mice; experiment: Therapeutic CIA study AA#80 (male mice), disease score; assay type: in vivo, mouse; conditions: male DBA/1 mice; 20 mg/kg IP 3× weekly, 8 doses from Day 24; vs control groups (FIG. 8)
Experimental: (§1) DBA/1 mice (10 per group) aged 7-9 weeks were used for the CIA model. Mice from several vendors (Jackson Laboratories, Harlan Laboratories, and Taconic Farms) were tested and it was determined that Taconic mice are most appropriate for the CIA studies. Taconic mice develop more consistent and severe disease symptoms and show continued disease progression, while mice from the other vendors often show stable, less severe disease, even in the absence of treatment. female (F) mice in AA#79 and male (M) mice in AA#80, were tested to determine which gender to use in future experiments.
On the day before the study is initiated, the hair on the right flank of each mouse was removed using an electric clipper. A metal identification tag was placed on the right ear of each mouse. On Day 0, mice were immunized with 100 μL of chicken collagen type II/Complete Freund's Adjuvant (CII/CFA) emulsion in the right flank. […]
(§2) Early arthritis symptoms, such as erythema and mild swelling, usually appear on Day 21, and on Day 28, more severe symptoms such as swelling in many digits and inflammation extending to the tarsal joint are typically present. Each limb is evaluated for severity of arthritis symptoms three times a week using a widely accepted arthritis severity score system, shown in Table 2. […]

[2] = tested on: DBA/1 mice; experiment: Therapeutic CIA study AA#79 (female mice), disease score; assay type: in vivo, mouse
Experimental: as §1
On the day before the study is initiated, the hair on the right flank of each mouse was removed using an electric clipper. A metal identification tag was placed on the right ear of each mouse. On Day 0, mice were immunized with 100 μL of chicken collagen type II/Complete Freund's Adjuvant (CII/CFA) emulsion in the right flank. On Day 20, the hair on the left flank of each mouse was removed using an electric clipper, and on Day 21, mice were immunized with 100 μL of chicken collagen type II/Incomplete Freund's Adjuvant (CII/IFA) emulsion in the left flank. Pre-filled syringes of CII/CFA and CII/IFA emulsion purchased from Hooke Laboratories were used to ensure consistent dosing with and potency of the immunogen.
as §2, with “2. The scores from each of the 4 limbs are summed to yield the disease score of each mouse.” for “2.”
Treatment was initiated when the average disease score for the study animals was greater than four. This corresponded to Day 29 in AA#79 and Day 24 in […]. By waiting until animals are symptomatic, it was ensured that the model is performed in a therapeutic rather than prophylactic mode.
B7-H4-Ig, RPA110010, and murine B7-H4-Ig proteins were administered by intraperitoneal (IP) injection 3 times a week for a total of 8 doses. RPA110010 is an extracellular domain variant of B7-H4-Ig, SEQ ID NO:126. Control murine and human IgG proteins were given once a week for a total of 3 doses. […] All proteins were diluted to the desired concentration (500 μg in 500 μL, or 1 mg/mL) with sterile PBS immediately before injection. Vehicle control mice receive Amplimmune formulation buffer diluted 1:10 in PBS, with an injection volume of 500 μL.

B1: RPA110010: an extracellular domain variant of B7-H4-Ig, SEQ ID NO:126 (protein)
chain: MEWSWVFLFFLSVTTGVHSGFGISGRHSITVTTVASAGNIGEDGILSCTFEPDIKLSDIVIQWLKEGVLGLVHEFKEGKDELSEQDEMFRGRTAVFADQVIVGNASLRLKNVQLTDAGTYKCYIITSKGKGNANLEYKTGAFSMPEVNVDYNASSETLRCEAPRWFPQPTVVWASQVDQGANFSEVSNTSFELNSENVTMKVVSVLYNVTINNTYSCMIENDIAKATGDIKVTESEIKRRS[… human IgG1 Fc …]
modifications: Synthetic fusion protein
[1]
  disease scores, AA#80: not effective
[2]; AA#79, Study Day 12, individual mouse (Tag#)
  CIA disease score: 1 (3×) and 0 (2×) and 2
[2]; AA#79, Study Day 18, individual mouse (Tag#)
  CIA disease score: 1 (3×) and 2 (2×) and 3
[2]; AA#79, Study Day 22, individual mouse (Tag#)
  CIA disease score: 2 (3×) and 4 and 3 (2×)
[2]; AA#79, Study Day 25, individual mouse (Tag#)
  CIA disease score: 4 (2×) and 3 (3×) and 2
[2]; AA#79, Study Day 27, individual mouse (Tag#)
  CIA disease score: 4 (4×) and 5 (2×)
[2]; AA#79, Study Day 29, individual mouse (Tag#)
  CIA disease score: 7 and 5 (4×) and 4
[2]; AA#79, Study Day 32, individual mouse (Tag#)
  CIA disease score: 9 and 4 (2×) and 5 (2×)
[2]; AA#79, Study Day 34, individual mouse (Tag#)
  CIA disease score: 11 and 6 (2×) and 3 and 5
[2]; AA#79, Study Day 36, individual mouse (Tag#)
  CIA disease score: 12 (2×) and 7 (3×) and 6
[2]; AA#79, Study Day 39, individual mouse (Tag#)
  CIA disease score: 13 and 7 and 4 and 6 (2×) and 15
[2]; AA#79, Study Day 41, individual mouse (Tag#)
  CIA disease score: 13 and 7 and 4 and 8 (2×) and 16
[2]; AA#79, Study Day 43, individual mouse (Tag#)
  CIA disease score: 14 and 4 and 3 and 5 and 9 and 16
[2]; AA#79, Study Day 46, individual mouse (Tag#)
  CIA disease score: 14 and 11 and 9 (2×) and 8 and 16
[2]; AA#79, Study Day 48, individual mouse (Tag#)
  CIA disease score: 14 and 13 and 5 and 10 (2×) and 16
[2]; AA#79, Study Day 50, individual mouse (Tag#)
  CIA disease score: 14 and 13 and 3 and 11 (2×) and 16
[2]; AA#79, Study Day 54, individual mouse (Tag#)
  CIA disease score: 13 and 12 (2×) and 5 and 11 and 16
[2]; AA#79, Study Day 57, individual mouse (Tag#)
  CIA disease score: 16 and 12 (2×) and 6 and 13 and 14
[2]; female DBA/1 mice, 20 mg/kg IP 3× weekly, 8 doses from Day 29, vs control groups (FIG. 7)
  disease scores, AA#79: not effective
